# In PubChem BioAssay AID686978 (National Center for Advancing Translational Sciences (NCATS), 2013):
# Among all 420,000 compounds or so, about 64,000 (15%) were called active. The inconclusive results got no clear call from the source; some entries with a clear call stand among them for comparison. The call rests on the fitted dose curve; in most records, active means well fitted inhibition curve with a large enough effect; inconclusive means small, poorly fitted or top-dose-only effect; inactive means flat fitted curve, though single readings scatter. Potencies of inconclusive entries are left out as doubtful fits.
# Test: qHTS for Inhibitors of human tyrosyl-DNA phosphodiesterase 1 (TDP1): qHTS in cells in absence of CPT; further: nearly all actives have a fitted effect of over 55% in size
# Settings: DT40 Tdp1-/- hTDP1 cells, no CPT, ATP luminescence, 48 h; activity change, negative = growth inhibition: at 46.2 µM (top of the series) unless noted
# Outline: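 Camptothecin absent (DMSO only). Human TDP1-complemented DT40 knockout cells, 400 cells/well, 37 °C for minimum 48 hr; ATP measured via CellTiter-Glo, 30 min dark incubation, luminescence.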
# On the % scale 0 is the no-effect control and ±100 the full control effect; potency means the concentration at half of the fitted maximal effect; tags describe the fitted curve by direction and shape.
SMILES,Potency,"activity change, negative = growth inhibition"
CCCN(CC1CC1)C(=O)CCc1nnc(C(OC)c2ccccc2)o1 (configuration not stated),"inconclusive [inhibitor, partial curve]",–
Cc1cc2nc3n(c2cc1C)CC1CC(C(=O)NCc2cccc(Br)c2)N(C)C31 (configuration not stated),inactive,–
CCOC(=O)CSc1cc(C(F)(F)F)nc(-c2ccccn2)n1,"inconclusive [inhibitor, single point]",–
Cc1c(CCOC(=O)CC23CC4CC(CC(C4)C2)C3)sc[n+]1CC(=O)c1ccccc1,active: 14.6 µM,–
CN1C(=O)C(C)(C)c2cc(S(=O)(=O)N3CCCC(C(=O)NCc4ccc(F)cc4)C3)ccc21 (configuration not stated),"inconclusive [inhibitor, partial curve]",–
COc1ccnc(Oc2ccc(F)cc2)c1C(=O)N/C=N/OCc1ccc(F)cc1Cl,"inconclusive [inhibitor, single point]",–
CCn1c(N2CCN(S(=O)(=O)c3ccccc3C(F)(F)F)CC2)nc2ccccc21,active: 16.4 µM,–
O=C(Nc1ccc(Cl)c(Cl)c1)Nc1nnc(-c2ccncc2)s1,active: 3.66 µM,–
FC(F)(F)c1ccc(Cl)c(NC(=S)NC2CC2)c1,inactive,–
CCc1nc(Nc2ccccc2OC)c2oc3ccccc3c2n1,"inconclusive [inhibitor, single point]",–
CN1C(=O)C(O)(CC(=O)c2cccnc2)c2ccccc21 (configuration not stated),active: 10.3 µM,–
S=C(NC1CCCCC1)N1CCc2ccccc2C1,"inconclusive [inhibitor, single point]",–
COc1ccc(CN2CCN(C(=O)c3ccc(CNS(=O)(=O)c4ccc(C)cc4)cc3)CC2)c(OC)c1OC,active: 13 µM,–
O=C(NC1CCCCCCC1)c1ccc(F)cc1,inactive,–
O=C(C[C@H]1C(=O)N(Cc2ccccc2)C[C@@H]1Cc1ccccc1)Nc1ccc(Br)cc1,"inconclusive [inhibitor, single point]",–
Cc1cc(C=C2C(=O)c3ccccc3C2=O)c(C)n1C,–,inconclusive: -32.7% [inhibitor]
COc1ccc(-c2onc(C)c2C)cc1S(=O)(=O)N1CCc2ccccc21,"inconclusive [inhibitor, single point]",–
O=C(O)COn1c(-c2ccccc2)nc2ccc([N+](=O)[O-])cc21,–,inconclusive: -35.7% [inhibitor]
CSc1nc(-c2ccccc2)nc(NC(C)=O)c1C(C)=O,"inconclusive [inhibitor, single point]",–
CCOC(=O)c1ccc(NC(=O)CC2Nc3cccc4cccc(c34)NC2=O)cc1 (configuration not stated),active: 2.59 µM,–
CCC1Cc2c(nc(N)c3c(N)nc(N4CCCCC4)c(C#N)c23)O1 (configuration not stated),"inconclusive [inhibitor, single point]",–
COC(=O)CN1C(=O)C(O)(CC(=O)c2ccccc2)c2ccccc21 (configuration not stated),"inconclusive [inhibitor, single point]",–
C1CN(c2nc3nonc3n3nnnc23)CCO1,inactive,–
CCc1ccc(CN(C(=O)c2ccc(OC)cc2)C2CCS(=O)(=O)C2)cc1 (configuration not stated),"inconclusive [inhibitor, single point]",–

SMILES,Potency,"activity change, negative = growth inhibition"
CCCCC(=O)Nc1nc(C)c(-c2csc(Nc3cc(OC)ccc3OC)n2)s1,"inconclusive [inhibitor, full curve, poor fit]",–
CC1CCN(CC(=O)n2c3c(c4ccccc42)CCCC3)CC1,–,inconclusive: -37.3% [inhibitor]
CCCc1ccc(S(=O)(=O)N2CCN(C(=O)c3cc(C)on3)CC2)cc1,"inconclusive [inhibitor, single point]",–
O=C(NCc1ccco1)c1cc(C(=O)C2CC2)c[nH]1,"inconclusive [inhibitor, partial curve]",–
CC1=C(C(=O)N2CCOCC2)CC(CC(=O)NCCCCc2ccccc2)C(=O)N1Cc1ccc(C(C)(C)C)cc1 (configuration not stated),active: 16.4 µM,–
O=C(c1cc(-c2ccc(Cl)cc2)nc2ccccc12)N1CCC1,active: 16.4 µM,–
CN(Cc1ccccc1)N=Nc1ccccc1,"inconclusive [inhibitor, single point]",–
CCC12CN3CC(CC)(CN(C1)C3c1cccc(OC)c1O)C2=O (configuration not stated),"inconclusive [inhibitor, single point]",–
COc1ccc2c(c1)CC[C@@H]1[C@@H]2CC[C@]2(C)[C@@H](C(C)=O)C[C@@H]12,"inconclusive [inhibitor, single point]",–
COc1cc2c(cc1NC(=O)COc1ccc(Br)c(C)c1)oc1ccccc12,inactive,–
Cc1ccc(S(=O)(=O)NC(CC(=O)n2nc(C)cc2C)c2ccccc2)cc1 (configuration not stated),"inconclusive [inhibitor, single point]",–
Clc1ccc(CN2C3=NCCCN3c3ccccc32)c(Cl)c1,"inconclusive [inhibitor, single point]",–
Cc1cccc(C#CC2=CC(=O)CC(C)(C)C2)c1,active: 10.3 µM,–
Cc1ccc(S(=O)(=O)N(C)c2ccc(C(=O)N3CCCCC3)cc2)cc1,"inconclusive [inhibitor, partial curve, poor fit]",–
COc1ccc(CN2C(=O)C(CC(=O)NCc3ccco3)CC(C(=O)N(C(C)C)C(C)C)=C2C)cc1 (configuration not stated),"inconclusive [inhibitor, single point]",–
COc1ccc(CCNC(=O)COc2nncc3ccccc23)cc1,inactive,–
Cc1nc(NC2CCCC2)sc1C(=O)N(C)C,inactive,–
CCCNC(=O)C1(C)CCCN(Cc2ccc(C(=O)OCC)o2)C1 (configuration not stated),"inconclusive [inhibitor, single point]",–
CCCCC(=O)Nc1sc2c(c1C#N)CC(C)(C)OC2,"inconclusive [inhibitor, single point]",–
O=C(OCc1ccccn1)c1ccc(COc2ccc3ccccc3c2)o1,"inconclusive [inhibitor, single point]",–
O=C(c1ccc2c(c1)OCCO2)N1CCN(c2nc(-c3cccs3)nc3ccccc23)CC1,active: 11.2 µM,–
CCN(CC(=O)Nc1c(F)cccc1F)C(=O)c1cc([N+](=O)[O-])ccc1N1CCCCC1,inactive,–
COc1ccc(-c2csc3ncnc(N4CCN(c5ccccc5Cl)CC4)c23)cc1,"inconclusive [inhibitor, single point]",–
CC1=C(C(=O)N(C(C)C)C(C)C)CC(CC(=O)NCc2ccco2)C(=O)N1Cc1ccc(C(C)(C)C)cc1 (configuration not stated),active: 16.4 µM,–

SMILES,Potency,"activity change, negative = growth inhibition"
N#CC(=C1C=C(Br)C(=NO)C=C1Cl)c1cccc2ccccc12,"inconclusive [inhibitor, single point]",–
O=C(Oc1ccc(N(C(=O)c2ccncc2)S(=O)(=O)c2ccc(F)cc2)cc1)c1ccncc1,"inconclusive [inhibitor, full curve, poor fit]",–
Cc1cccc(N2CCN(C(=O)c3cn(C)c4ccc(S(=O)(=O)N(C)C)cc4c3=O)CC2C)c1 (configuration not stated),–,inconclusive: -32.9% [inhibitor]
CC(C)C(=O)N(c1cc2sc(=O)oc2c2ccccc12)S(=O)(=O)c1cccs1,active: 11.6 µM,–
CCc1ccc(CNC(=O)c2ccc(CS(=O)c3ccc(Br)cc3)o2)cc1 (configuration not stated),"inconclusive [inhibitor, partial curve]",–
CCc1nnc(SCC(=O)Nc2ccc(Cl)cc2F)c2cc3occc3n12,active: 14.6 µM,–
COc1cc([N+](=O)[O-])cc(/C=N/NC(=O)c2ccc(NC(=O)c3ccc(C)cc3)cc2)c1O,active: 4.11 µM,–
CCOC(=O)c1c(NC(=O)CCCOc2ccc(C)cc2)sc2c1CCC(C)C2 (configuration not stated),inactive,–
COc1ccc(C2=CC(c3ccccc3Cl)n3nc(-c4ccc(C)cc4)nc3N2)cc1 (configuration not stated),"inconclusive [inhibitor, single point]",–
COc1cnc(-c2ccccn2)nc1Oc1ccc(F)cc1F,active: 3.66 µM,–
CN(C)S(=O)(=O)c1ccc(C(=O)OCC(=O)Nc2ccc3c(c2)OCO3)cc1,inactive,–
Cn1c(=O)n(C)c2cc(NS(=O)(=O)c3ccc(C(C)(C)C)cc3)ccc21,active: 18.4 µM,–
S=c1[nH]nc(NCCc2ccccc2)s1,inactive,–
O=C(N/N=C/c1ccc2c(c1)OCO2)/C(=C/c1ccc2c(c1)OCO2)NC(=O)c1ccccc1,"inconclusive [inhibitor, single point]",–
CCn1c(C(=O)NCc2ccc(C)cc2)cc2sc(Cl)cc21,"inconclusive [inhibitor, single point]",–
CCNC(=O)N1CCOCC1,active: 6.31 µM,–
O=C(COC(=O)c1ccc(O)cc1)Nc1ccc(S(=O)(=O)N2CCOCC2)cc1,inactive,–
CC1CC(C)(C)CC2(C1)NC(=O)N(CC(=O)N(Cc1ccccc1)c1ccccc1)C2=O (configuration not stated),"inconclusive [inhibitor, single point]",–
CCCNC(=O)NC(=O)CSc1cccc(C(F)(F)F)c1,"inconclusive [inhibitor, single point]",–
CCN(CC)S(=O)(=O)c1ccc(Cl)c(NC(=O)COC(=O)/C=C/c2cc(OC)c(OC)c(OC)c2)c1,"inconclusive [inhibitor, single point]",–
S=C(NCCc1cccc(Cl)c1)NC1CCCCC1,active: 20.6 µM,–
O=C(Oc1cccc(Oc2ccccc2)c1)N1CCOCC1,inactive,–
COc1cn(CC(=O)Nc2c(C)cc(C)cc2C)c(CN2CCCCC2)cc1=O,inactive,–
COc1cc(CNCCCN2CCOCC2)c(Br)cc1OC(C)C,"inconclusive [inhibitor, single point]",–
